35 compounds from the supplement of paper PMC4723716 can be followed below.

This assay concerns Plasmodium falciparum NF54 stage V gametocytes. As to the kind of experiment: viability index relative to DMSO control (fraction); higher = less gametocyte killing. Conditions: 2.5 µM, incubation time: 72 h. In short, it runs like this: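 Stage V gametocytes of P. falciparum NF54 were held in serum-free screening medium at 0.75% gametocytemia and 1.25% hematocrit, 10 µl per well of a 1,536-well plate, and exposed to compound at 2.5 µM for 72 hr at 37°C under low oxygen. A 3 µl mix of 2.5 µM MitoTracker Red CMXRos with 0.13% saponin was then added for one to two hours, after which one field per well was imaged and red particles of 20–70 µm2 were counted. The viability index equals this count divided by the plate mean from wells given solvent alone.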

Where [1] appears, read: library set: Broad Institute DOS.

Where “and” joins values, the source holds several entries; their conditions need not be identical. Identical values can stand only once. ± gives the uncertainty stated by the source. The full ranking holds about 9,900 compounds; the median of “viability index relative to DMSO control” is about 1, and the lowest 2% start at about 0.85. Some of the results follow.

On to `C[C@@H]1CCCCO[C@H](CN(C)C(=O)NC2CCCCC2)[C@H](C)CN([C@H](C)CO)C(=O)c2cc(N(C)C)ccc2O1`, for which, under setting [1], the viability index was found to be 1.02 ± 0.032.
Still for that read-out and setting: next, `C/C=C/c1cnc2c(c1)C(=O)N([C@H](C)CO)C[C@@H](C)[C@@H](CN(C)CC1CCOCC1)O2`: 1.05 ± 0.016.
On to `CO[C@@H](CN(C)C(=O)c1ccccc1F)[C@H](C)CN([C@@H](C)CO)S(=O)(=O)c1ccc(F)cc1`, for which the viability index under setting [1] came to 1.01 ± 0.023.
As for `C[C@H]1CN([C@@H](C)CO)C(=O)Cc2cc(NS(=O)(=O)c3cn(C)cn3)ccc2O[C@H]1CN(C)Cc1ccc2c(c1)OCO2`, the viability index under setting [1] is 1.06 ± 0.05.
Same read-out and setting: next, `O=C(C[C@H]1C=C[C@H](NS(=O)(=O)c2ccc(F)cc2)[C@@H](CO)O1)N1CCc2ccccc2C1`: 0.95 ± 0.057.
The same measure, in the same setting: next, `COc1ccc2c3c([C@H](CO)N(CC4CC4)C[C@]33CCN(CC3)S(=O)(=O)c3cccs3)n(C)c2c1`: 0.965 ± 0.02; `C[C@@H]1CN([C@@H](C)CO)C(=O)c2cc(/C=C/c3ccccc3)cnc2O[C@@H]1CN(C)S(=O)(=O)c1ccccc1F`: 1.02 ± 0.059.
The same measure, in the same setting: next, `CS(=O)(=O)N1CC(=O)N2[C@H](CO)[C@@H](c3ccc(C#CCC4CCCC4)cc3)[C@@H]2C1`: 0.933 ± 0.074; `O=C1N[C@@H](c2ccccc2)COCc2cnnn2CC[C@H]1Cc1ccc(C(F)(F)F)cc1`: 1.04 ± 0.026; `CCC(=O)N1C[C@H](C)[C@@H](OC)CN(C)C(=O)c2ccc(NC(=O)CC(F)(F)F)cc2OC[C@@H]1C`: 1.07 ± 0.068.
Under setting [1], `O=C(C[C@@H]1CC[C@@H]2[C@H](COC[C@H](O)CN2C(=O)Nc2cccc(F)c2)O1)NCCCN1CCOCC1` came in with a viability index of 1.07 ± 0.014.
For the compound `NCC[C@@H]1CC[C@@H](NS(=O)(=O)c2ccc(Cl)cc2)[C@@H](CO)O1`, the viability index under setting [1] was 1.02 and 1.13.
Still for that read-out and setting: the same measure for `CO[C@H]1CN(C)C(=O)c2cc(NC(=O)Cc3ccccc3)ccc2OC[C@@H](C)N(C(=O)c2ccccc2F)C[C@@H]1C`: 1.05 ± 0.11; for `C[C@@H]1CCCCO[C@H](CN(C)C(=O)c2ccncc2)[C@H](C)CN([C@@H](C)CO)C(=O)c2cc(NC(=O)CCC(F)(F)F)ccc2O1`: 1 ± 0.054.
The same measure, in the same setting: the same measure for `CO[C@@H](CN(C)C(=O)C1CCOCC1)[C@H](C)CN([C@@H](C)CO)S(=O)(=O)c1ccccc1`: 1.06 ± 0.074.
Still for that read-out and setting: next, `CCC(=O)N[C@H]1CC[C@@H](CC(=O)NCc2ccccc2F)O[C@H]1CO`: 1.17 ± 0.02; `COCc1cn(CC[C@H]2CC[C@H](NC(=O)Nc3c(C)noc3C)[C@@H](CO)O2)nn1`: 0.927 ± 0.067; `O=C(C[C@@H]1CC[C@@H]2[C@H](COC[C@@H](O)CN2CC2CCOCC2)O1)NCc1ccc(Cl)cc1`: 1.08 ± 0.075.
On to `Cc1ccccc1-c1ccccc1[C@@H]1[C@@H](C#N)N(C(=O)c2ccc(F)cc2)[C@H]1CO`, for which, under setting [1], the viability index is 1.15 ± 0.051.
On to `CC(=O)N1[C@H](C(=O)NCc2ccccc2Cl)[C@@H](CO)[C@@H]2Cn3c(ccc(-c4cncnc4)c3=O)[C@@H]21`, for which the viability index under setting [1] is 1.04 ± 0.058.
Still for that read-out and setting: the same measure for `O=C(C[C@@H]1CC[C@H]2[C@@H](COC[C@@H](O)CN2C(=O)c2ccc(F)cc2)O1)N1CCCCC1`: 1.07 ± 0.046.
Still for that read-out and setting: the same measure for `COCC#Cc1ccc([C@H]2[C@H](CO)N3C(=O)CN(C(=O)Nc4ccccc4F)C[C@@H]23)cc1`: 1.029 ± 0.0064; for `CO[C@@H]1CN(C)C(=O)c2cc(NS(C)(=O)=O)ccc2OC[C@H](C)N(C(=O)C2CCOCC2)C[C@@H]1C`: 1.03 ± 0.049.
Same read-out and setting: next, `CC(C)(C)S(=O)N1Cc2cc(C(=O)O)nc(-c3cccc(-c4cc5ccccc5o4)c3)c2[C@@H]1CCO` (stereo not given in full): 1.03 ± 0.023; `C[C@H](CO)N1C[C@H](C)[C@@H](CN(C)Cc2cccc(C(F)(F)F)c2)OCc2ccccc2-c2c(n(C)c3ccccc23)C1=O`: 0.878 ± 0.081.
Consider `C[C@H]1CN([C@@H](C)CO)C(=O)Cc2cc(NC(=O)Cn3cnnn3)ccc2O[C@@H]1CN(C)S(=O)(=O)c1ccc(Cl)cc1`, for which the viability index under setting [1] is 1.09 ± 0.066.
The same measure, in the same setting: the same measure for `COc1ccc(C(=O)N2C[C@H]3[C@@H](c4ccccc42)[C@@H](CO)N3C(=O)NC(C)C)cc1`: 1.05 ± 0.045; for `C[C@H](CO)N1C[C@H](C)[C@H](CN(C)Cc2ccc3c(c2)OCCN3C)OCc2cnnn2CCCC1=O`: 1.04 ± 0.043.
Still for that read-out and setting: next, `CCC(=O)N1[C@H](CO)[C@@H](c2ccc(/C=C/c3ccccc3)cc2)C12CN(S(C)(=O)=O)C2`: 1.06 ± 0.025; `COC(=O)C[C@H]1C[C@@H]2c3cc(NC(=O)C4CCOCC4)ccc3O[C@@H]2[C@H](CO)O1`: 1.128 ± 0.0042; `CCCNC[C@H]1[C@@H](c2ccc(C3=CCCCC3)cc2)[C@@H](CO)N1C(=O)C1CCC1`: 0.977 ± 0.036.
Same read-out and setting: the same measure for `COc1ccc(S(=O)(=O)Nc2ccc3c(c2)C(=O)N([C@@H](C)CO)C[C@H](C)[C@@H](CN(C)S(=O)(=O)c2ccc(Cl)cc2)OCCCC[C@@H](C)O3)cc1`: 0.927 ± 0.078.
`C[C@H](CO)N1C[C@H](C)[C@@H](CN(C)C(=O)C2CCCCC2)Oc2ncc(/C=C/c3ccccc3)cc2C1=O`: the viability index (library set: Broad Institute Blood Stage) was found to be 0.735 ± 0.028.
Under setting [1], `O=C(NCc1cc(F)cc(F)c1)[C@H]1[C@H](CO)[C@H]2Cn3c(cccc3=O)[C@@H]1N2` returned a viability index of 1.01 ± 0.027.
Turning to `C[C@H](CO)N1C[C@H](C)[C@@H](CN(C)C(=O)Nc2cccc3ccccc23)OCCCC[C@H](C)Oc2ccc(NC(=O)CCC(F)(F)F)cc2C1=O`, the viability index under setting [1] was determined as 1.02 ± 0.072.
